Hit rate of the full screen: of about 270,000 compounds, about 620 (0.23%) were called active. The inconclusive results got no clear call from the source; some entries with a clear call stand among them for comparison. Calls follow the shape of the dose curve; as a rule, active = well fitted inhibition curve with a large enough effect in the polarisation, with a control signal flat (not every such curve was filed as active); inconclusive = small, poorly fitted or top-dose-only effect, or effect the other way, or a change in a side signal; inactive = no such curve, though single readings can be large or run the other way; the % refers to the polarisation. Potencies of inconclusive entries are doubtful fits and often do not repeat. “Side channel” marks fits to a control or component signal instead of the main read-out.
The compounds below were run against Menin (Homo sapiens) (UniProt O00255) (assay: qHTS Assay for Inhibitors Targeting the Menin-MLL Interaction in MLL Related Leukemias: Competition With Texas Red Labeled MLL-derived Mutant Peptide). Settings: fluorescence polarization; series mostly up to 61.6 µM.
Potency is read from the fitted curve at half-maximal effect; tags tell the direction and shape of the fitted curve or compound fluorescence and quenching.

UniProt O00255, sequence (O00255 whole entry, looked up): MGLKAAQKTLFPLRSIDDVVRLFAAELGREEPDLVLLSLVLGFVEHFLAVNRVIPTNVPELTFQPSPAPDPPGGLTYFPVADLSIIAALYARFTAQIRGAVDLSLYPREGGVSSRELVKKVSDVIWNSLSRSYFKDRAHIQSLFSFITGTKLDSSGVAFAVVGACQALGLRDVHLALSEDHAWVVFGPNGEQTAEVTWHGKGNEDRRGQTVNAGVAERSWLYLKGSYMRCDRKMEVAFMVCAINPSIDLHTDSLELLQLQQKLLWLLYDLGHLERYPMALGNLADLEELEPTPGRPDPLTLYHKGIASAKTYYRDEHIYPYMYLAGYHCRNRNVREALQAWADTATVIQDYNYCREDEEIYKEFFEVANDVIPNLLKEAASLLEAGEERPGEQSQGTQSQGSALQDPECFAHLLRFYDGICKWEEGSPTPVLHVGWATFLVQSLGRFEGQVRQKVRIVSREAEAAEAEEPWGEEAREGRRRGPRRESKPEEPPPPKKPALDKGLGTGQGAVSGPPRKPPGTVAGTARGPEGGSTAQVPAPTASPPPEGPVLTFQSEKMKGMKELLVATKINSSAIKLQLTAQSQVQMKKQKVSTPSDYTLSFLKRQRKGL

Potency, inactive:
Cc1cc2ncn(C(=O)c3cc(-c4ccccc4)nc4ccccc34)c2cc1C
CCCCn1nnnc1SCC(=O)Nc1ccc(F)cc1
Nc1ccccc1Oc1ccccc1
Cc1ccc(-c2nc3cc(NC(=O)C(C)C)ccc3o2)cc1C
Cc1cccc(NC(=O)c2cc(NC(=O)c3ccco3)ccc2Cl)n1
CCOc1ccc(Cc2n[nH]c(=S)n2N)cc1
Cc1cccc(-n2c(=O)[nH]c3c(C(N)=O)nc(C(C)C)nc32)c1

Potency, inconclusive:
Cc1ccc(Cn2cnc3c(nnn3Cc3ccc(Cl)cc3)c2=O)cc1 12.6 µM [fluorescent, side channel, partial curve]
CCN(CC)c1ccc(CC(=O)NC(C)Cc2ccccc2)cc1 (configuration not stated) 10 µM [inhibitor, partial curve]
Cc1ccc(NC(=O)Cn2c(O)c(N=NC(=O)c3cc4ccccc4cc3O)c3ccccc32)cc1 12.6 µM [quencher, side channel, partial curve]
Cc1nc2ccc(NC(=O)c3ccc(Cl)c(NC(=O)c4cccs4)c3)cc2s1 28.2 µM [quencher, side channel, single point]
CCOP(=O)(OCC)c1nc(/C=C/c2ccccc2)oc1NCc1ccccc1 1.26 µM [inhibitor, full curve, poor fit]
N#CC1=C(SCc2ccc(C#N)cc2)N=C(N)C(c2nc(-c3ccccc3)cs2)C12CCCCC2 (configuration not stated) 4.47 µM [quencher, side channel, full curve, poor fit]
CCOc1ccc(C(C(=O)NCC2CCCO2)N(Cc2cccs2)C(=O)c2snc(C(N)=O)c2N)cc1 (configuration not stated) 39.8 µM [fluorescent, side channel, single point]
COCCN=C1N[C@@H](c2cccc(C(F)(F)F)c2)C(C(=O)OC)=C(C)N1Cc1ccccc1 11.2 µM [inhibitor, partial curve]
COc1ccccc1CNC(=O)CSc1nc(-c2ccccc2)cn1N 44.7 µM [inhibitor, single point]
S=c1[nH]nc(-c2cccnc2)n1/N=C/C=C/c1ccco1 35.5 µM [quencher, single point]
COc1ccc(-c2nc(C)ncc2-c2ccc(Cl)cc2)c(O)c1 15.8 µM [fluorescent, side channel, partial curve]
C[C@H](NC(=O)c1nc[nH]c1C(=O)NC1CCN(C(=O)OC(C)(C)C)CC1)C(=O)OC(C)(C)C 7.94 µM [fluorescent, side channel, full curve, poor fit]
O=C(NC(=S)Nc1ccc2oc(=O)ccc2c1)c1cccc(Cl)c1 22.4 µM [fluorescent, side channel, single point]
COc1ccc(CNc2nc(-c3ccccc3)nn2C(=O)c2cccs2)cc1 15.8 µM [quencher, side channel, partial curve]
O=[N+]([O-])c1ccc(/C=C/C2=NN(c3ccccc3)C(c3ccco3)C2)cc1 (configuration not stated) 5.62 µM [quencher, side channel, single point]
C=CCc1cc(Cl)ccc1OCCOCCNC(C)(C)C 31.6 µM [inhibitor, single point]
CCN(CC)CCCN(C(=O)c1ccc(Br)cc1)c1nc(-c2ccc(OC)cc2)cs1 1.26 µM [inhibitor, full curve, poor fit]
Cc1nc(C(=O)N2CCc3c([nH]c4ccccc34)C2c2cc(F)ccc2F)cs1 (configuration not stated) 12.6 µM [inhibitor, partial curve]
Cc1cc(C)c(NC(=O)/C(=C/c2ccccc2)c2ccccc2)c(C)c1 8.91 µM [fluorescent, side channel, partial curve]
O=C1OCCN1C(=O)[C@H]1[C@H](c2ccc(F)cc2)C(c2cccc(Cl)c2)=NN1c1ccccc1 3.55 µM [quencher, side channel, single point]
COc1ccccc1C(=O)Nc1ccnn1C1CCN(CCCC2CCCC2)CC1 31.6 µM [inhibitor, single point]
N#Cc1c(NC(=S)NC(=O)c2ccccc2)sc2c1CCC2 31.6 µM [quencher, side channel, single point]
CC(C)NC(=O)C1CCCN(S(=O)(=O)c2cccs2)C1 (configuration not stated) 31.6 µM [inhibitor, single point]
O=C(Nc1nccs1)c1cc(-c2ccncc2)nc2ccccc12 17.8 µM [quencher, side channel, partial curve]
CSc1oc(-c2ccco2)nc1S(=O)(=O)c1ccc(F)cc1 14.1 µM [quencher, side channel, partial curve]
COc1cc(C(=O)N/N=C/c2cn(Cc3cccc(F)c3)c3ccccc23)ccc1O 5.62 µM [quencher, side channel, partial curve]
c1ccc(Nc2nc(-c3ccoc3)nc3ccccc23)cc1 39.8 µM [quencher, side channel, single point]
CSc1cccc(NC(=S)N(CCCN2CCCC2)Cc2cccn2Cc2ccc(Cl)cc2)c1 8.91 µM [fluorescent, side channel, partial curve]
COc1cccc(OC)c1C(=O)N1CCN(Cc2ccccc2C(F)(F)F)CC1 17.8 µM [fluorescent, side channel, single point]
COc1ccc(NC(=O)COC(=O)c2ccc(NS(=O)(=O)/C=C/c3ccccc3)cc2)cc1 12.6 µM [quencher, side channel, partial curve]
O=C1OCCN1C(=O)[C@H]1[C@H](c2ccc(Cl)cc2)C(c2ccccc2)=NN1c1ccccc1 7.08 µM [quencher, side channel, single point]
CN(C)S(=O)(=O)c1cccc(NC(=O)c2c[nH]c3ccccc23)c1 17.8 µM [quencher, side channel, partial curve]
O=C(Nc1cccc([N+](=O)[O-])c1)N1CCc2ccccc2C1 25.1 µM [quencher, side channel, single point]
C/C(=N\NC(=O)Cc1ccccc1)c1ccc(Br)s1 22.4 µM [fluorescent, side channel, single point]
O=C(Nc1cccc(NC(=O)c2ccc(F)cc2)c1)c1ccc(F)cc1 39.8 µM [fluorescent, single point]
O=C(C1CCCN(S(=O)(=O)Cc2ccccc2)C1)N1CCC(Cc2ccccc2)CC1 (configuration not stated) 7.94 µM [fluorescent, side channel, partial curve]
CCn1ncc([C@@H]2C[C@H]3CN(Cc4ccccc4C)C(=O)[C@]34CCCN24)c1C 28.2 µM [fluorescent, side channel, partial curve]
CCOC(=O)c1c(NC(=O)CCN2CCOCC2)sc(C)c1-c1ccccc1 15.8 µM [inhibitor, partial curve]
O=C1CC(C(=O)N2CCC(N3CCC(C(=O)NC4CC4)CC3)CC2)c2ccccc21 (configuration not stated) 39.8 µM [fluorescent, side channel, single point]
Clc1ccc(Cn2c(CN3CCCC3)nc3ccccc32)cc1 14.1 µM [fluorescent, side channel, partial curve]
CCCCCC1=C2CNC(CCC)(C(=O)OC)C=C2C(C)C1=O (configuration not stated) 5.01 µM [inhibitor, full curve, poor fit]
CCC(=O)c1cn(CC(=O)Nc2cccc(C)c2)c2ccccc12 39.8 µM [inhibitor, single point]
O=c1c2cc([N+](=O)[O-])cc([N+](=O)[O-])c2[nH]n1-c1ccccc1 8.91 µM [quencher, side channel, partial curve]
CCOC(=O)N1CCN(C(=S)Nc2cc(OC)c(OC)cc2C(=O)OC)CC1 39.8 µM [inhibitor, single point]
Cc1cccc(OCCCC(=O)Nc2ccc(N(C)C)cc2)c1 31.6 µM [quencher, side channel, single point]
CN(C)S(=O)(=O)NCC1CCCN(Cc2ccc(-c3ccccc3)cc2)C1 (configuration not stated) 14.1 µM [inhibitor, partial curve]
CCNc1ccc(Br)cc(C(=O)/C=C/c2ccc(Cl)cc2Cl)c1=O 28.2 µM [quencher, side channel, partial curve]
Cc1cc2c(cc1C)-c1c(ssc1=Nc1ccc(S(N)(=O)=O)cc1)C(C)(C)N2 10 µM [quencher, side channel, partial curve]
COc1ccc(C(=O)Nc2ccc(Nc3ccccc3)cc2)cc1OC 10 µM [quencher, side channel, partial curve]
CCOC(=O)/C(=C/c1ccc(OC(=O)c2ccccc2)cc1)C(C)=O 22.4 µM [fluorescent, side channel, partial curve, poor fit]

— PubChem BioAssay AID1768 (National Center for Advancing Translational Sciences (NCATS), 2009)
